Results on ten variants are retold here after the supplement of paper PMC12217912.

First the molecules themselves.
B1: TEV protease; numbered along this chain (parent)
chain: MGESLFKGPRDYNPISSSICHLTNESDGHTTSLYGIGFGPFIITNKHLFRRNNGTLVVQSLHGVFKVKDTTTLQQHLVDGRDMIIIRMPKDFPPFPQKLKFREPQREERICLVTTNFQTKSMSSMVSDTSCTFPSGDGIFWKHWIQTKDGQCGSPLVSTRDGFIVGIHSASNFTNTNNYFTSVPKNFMELLTNQEAQQWVSGWRLNADSVLWGGHKVFMVKPEEPFQPVKEATQL

Some of the results follow. Sequences were assembled here from the parent chain. Inactive controls read about 0.05.
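Further: Bxb1 expression induced with 0.2% (w/v) L-rhamnose at OD600 near 0.5, cultures sampled hourly, flipped fraction per protease–substrate barcode pair counted by paired-end Illumina sequencing.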

In the experiment the parent is B1. The experiment in a line: raw area under fraction-flipped curve 0-4 h after induction (AUC4h, not background-subtracted), DNA-recorder readout of cleavage of the substrate (dimensionless); higher = more cleavage of the substrate by the protease variant. The note with it: temperature: 34 °C; time window: 0-4 h after rhamnose induction.
On to MGESLFKGPRDYNPISSSICHLTNESDGHTTSLYGIGFGPFIITNKHLFRRNNGTLVVQSLHGVFKVKDTTTLQQHLVDGRDMIIIRMPKDFPPFPQKLKFREPQREERICLVTTNFQTKSMSSMVSDTSCTFPSGDGIFWKHWIQTKDGQCGSPLVSTRDGFIVGIHSASNFTNTNNYFTSVPKNFMELLTNQEAQQWVSGWRLNADSVLWGGHKVFMVKPEEPFHPVKEATQL [Q227H], for which the “area with substrate ENLYFQI” value was determined as 0.0645, the “area with substrate ENLYFQM” value was 0.0933, the “area with substrate ENLYFQN” value turned out to be 0.08 and the “area with substrate ENLYFQR” value stood at 0.0664. In addition, the “area with substrate ENLYFQS” value came to 0.103, the “area with substrate ENLYFQT” value is 0.0481 and the “area with substrate ENLYFQW” value was 0.0678.
On to MGESLFKGPRDYNPISSSICHLTNESDGHTTSLYGIGFGPFIITNKHLFRRNNGTLVVQSLHGVFKVKDTTTLQQHLVDGRDMIIIRMPKDFPPFPQKLKFREPQREERICLVTTNFQTKSMSSMVSDTSGTFPSGDGIFWKHWIQTKDGQCGSPLVSTRDGFIVGIHSASNFTNTNNYFTSVPKNFMELLTNQEAQQWVSGWRLNADSVLWGGHKVFMVKPEEPFQPVKEATQL [C131G], for which the “area with substrate ENLYFQL” value stood at 0.0601, the “area with substrate ENLYFQN” value came to 0.0766, the “area with substrate ENLYFQP” value is 0.0494 and the “area with substrate ENLYFQR” value was 0.0585. The “area with substrate ENLYFQS” value stood at 0.087, the “area with substrate ENLYFQW” value worked out at 0.0635 and the “area with substrate ENLYFQY” value came to 0.0809.
Take MGESLFKGPRDYNPISSSICHLTNESDGHTTSLYGIGFGPFIITNKHLFRRNNGTLVVQSLHGVFKVKDTTTLQQHLVDGRDMIIIRMPKDFPPFPQKLKFREPQREERICLVTTNFQTKSMSSMVSDTSLTFPSGDGIFWKHWIQTKDGQCGSPLVSTRDGFIVGIHSASNFTNTNNYFTSVPKNFMELLTNQEAQQWVSGWRLNADSVLWGGHKVFMVKPEEPFQPVKEATQL [C131L]: the “area with substrate ENLYFQN” value was 0.0798, the “area with substrate ENLYFQS” value is 0.103 and the “area with substrate ENLYFQV” value stood at 0.036.
As for MGESLFKGPRDYNPISSSICHLTNESDGHTTSLYGIGFGPFIITNKHLFRRNNGTLVVQSLHGVFKVKDTTTLQQHLVDGRDMIIIRMPKDFPPFPQKLKFREPQREERICLVTTNFQTKSMSSMVSDTSCTFPSGDGIFWKHWIQTKDGQCGSPLVSTRDGFIVGIHSASNFTNTNNYFTSVPKNFMELLTNQEAQQWVSGWRLNADSVLHGGHKVFMVKPEEPFQPVKEATQL [W212H], the “area with substrate ENLYFQH” value turned out to be 0.0686, the “area with substrate ENLYFQI” value worked out at 0.0604, the “area with substrate ENLYFQN” value came to 0.0615 and the “area with substrate ENLYFQS” value amounted to 0.0845. Further, the “area with substrate ENLYFQW” value is 0.0503.
With MGESLFKGPRDYNPISSSICHLTNESDGHTTSLYGIGFGPFIITNKHLFRRNNGTLVVQSLHGVFKVKDTTTLQQHLVDGRDMIIIRMPKDFPPFPQKLKFREPQREERICLVTTNFQTKSMSSMVSDTSCTFPSGDGIFWKHWIQTKDGQCGSPLVSTRDGFIVGIHSASNFTNTNNYFTSVPKNFMELLTNQEAQQWVFGWRLNADSVLWGGHKVFMVKPEEPFQPVKEATQL [S201F], the “area with substrate ENLYFQK” value was determined as 0.0642, the “area with substrate ENLYFQS” value stood at 0.0856, the “area with substrate ENLYFQT” value was found to be 0.0621 and the “area with substrate ENLYFQW” value came to 0.0636.
Regarding MGESLFKGPRDYNPISSSICHLTNESDGHTTSLYGIGFGPFIITNKHLFRRNNGTLVVQSLHGVFKVKDTTTLQQHLVDGRDMIIIRMPKDFPPFPQKLKFREPQREERICLVTTNFQTKSMSSMVSDTSCTFPSGDGIFWKHWIQTKDGQCGSPLVSWRDGFIVGIHSASNFTNTNNYFTSVPKNFMELLTNQEAQQWVSGWRLNADSVLWGGHKVFMVKPEEPFQPVKEATQL [T159W], the “area with substrate ENLYFQL” value worked out at 0.0584, the “area with substrate ENLYFQN” value was 0.0712 and the “area with substrate ENLYFQS” value is 0.104.
In the case of MGESLFKGPRDYNPISSSICHLTNESDGHTTSLYGIGFGPFIITNKHLFRRNNGTLVVQSLHGVFKVKDTTTLQQHLVDGRDMIIIRMPKDFPPFPQKLKFREPQREERICLVTTNFQTKSMSSMVSDTSCTFPSGDGIFWKHWIQTKDGQCGSPLVSTRDGFIVGIHSASNFTNTNNYFTSVPKNFMELLTNQEPQQWVSGWRLNADSVLWGGHKVFMVKPEEPFQPVKEATQL [A196P], the “area with substrate ENLYFQH” value was determined as 0.0732, the “area with substrate ENLYFQI” value came to 0.0628, the “area with substrate ENLYFQK” value came out at 0.0595 and the “area with substrate ENLYFQM” value was determined as 0.0642. Moreover, the “area with substrate ENLYFQR” value came out at 0.0626 and the “area with substrate ENLYFQS” value came to 0.0942.
Consider MGESLFKGPRDYNPISSSICHLTNESDGHTTSLYGIGFGPFIITNKHLFRRNNGTLVVQSLHGVFKVKDTTTLQQHLVDGRDMIIIRMPKDFPPFPQKLKFREPQREERICLVTTNFQTKSMSSMVSDTSCTFPSGDGIFWKHWIQTKDGQCGSPLVSTRDGFIVGIHSASNFTNTNNYFTSVPKNFMELLTNQEAQQWVSGWRLNADSVLWGGHKVFMVKPEEPFQIVKEATQL [P228I], for which the “area with substrate ENLYFQI” value is 0.0722, the “area with substrate ENLYFQK” value turned out to be 0.0526, the “area with substrate ENLYFQP” value was determined as 0.0572 and the “area with substrate ENLYFQS” value came out at 0.102. The “area with substrate ENLYFQY” value worked out at 0.0762.
For MGESLFKGPRDYNPISSSICHLTNESDGHTTSLYGIGFGPFIITNKHLFRRNNGTLVVQSLHGVFKVKATTTLQQHLVDGRDMIIIRMPKDFPPFPQKLKFREPQREERICLVTTNFQTKSMSSMVSDTSCTFPSGDGIFWKHWIQTKDGQCGSPLVSTRDGFIVGIHSASNFTNTNNYFTSVPKNFMELLTNQEAQQWVSGWRLNADSVLWGGHKVFMVKPEEPFQPVKEATQL [D69A], the “area with substrate ENLYFQI” value was 0.0788, the “area with substrate ENLYFQS” value stood at 0.0876, the “area with substrate ENLYFQT” value turned out to be 0.067 and the “area with substrate ENLYFQY” value turned out to be 0.0828.
Take MGESIFKGPRDYNPISSSICHLTNESDGHTTSLYGIGFGPFIITNKHLFRRNNGTLVVQSLHGVFKVKDTTTLQQHLVDGRDMIIIRMPKDFPPFPQKLKFREPQREERICLVTTNFQTKSMSSMVSDTSCTFPSGDGIFWKHWIQTKDGQCGSPLVSTRDGFIVGIHSASNFTNTNNYFTSVPKNFMELLTNQEAQQWVSGWRLNADSVLWGGHKVFMVKPEEPFQPVKEATQL [L5I]: the “area with substrate ENLYFQI” value was determined as 0.0439, the “area with substrate ENLYFQK” value was found to be 0.0566, the “area with substrate ENLYFQM” value was 0.104 and the “area with substrate ENLYFQN” value was found to be 0.0796. The “area with substrate ENLYFQR” value came out at 0.0502, the “area with substrate ENLYFQS” value came out at 0.126, the “area with substrate ENLYFQT” value amounted to 0.0686 and the “area with substrate ENLYFQW” value was 0.0617.
